Experimental data from publication PMC4117486, “Investigation of Endoglin Wild-Type and Missense Mutant Protein Heterodimerisation Using Fluorescence Microscopy Based IF, BiFC and FRET Analyses” (PLoS ONE, 2014).
Read-outs that look alike come from different tables or passages of the source. These are yes or no findings as the source states them, for the method shown. Binding seen in cells or lysates may run through a third protein. Some binding calls cover weakened binding; strength is not graded here. Where a sequence is shown, tags or fusion partners need not be part of it.

Sequences of proteins named here, by UniProt entry; tags and fusion partners are left off.
UniProt P21728: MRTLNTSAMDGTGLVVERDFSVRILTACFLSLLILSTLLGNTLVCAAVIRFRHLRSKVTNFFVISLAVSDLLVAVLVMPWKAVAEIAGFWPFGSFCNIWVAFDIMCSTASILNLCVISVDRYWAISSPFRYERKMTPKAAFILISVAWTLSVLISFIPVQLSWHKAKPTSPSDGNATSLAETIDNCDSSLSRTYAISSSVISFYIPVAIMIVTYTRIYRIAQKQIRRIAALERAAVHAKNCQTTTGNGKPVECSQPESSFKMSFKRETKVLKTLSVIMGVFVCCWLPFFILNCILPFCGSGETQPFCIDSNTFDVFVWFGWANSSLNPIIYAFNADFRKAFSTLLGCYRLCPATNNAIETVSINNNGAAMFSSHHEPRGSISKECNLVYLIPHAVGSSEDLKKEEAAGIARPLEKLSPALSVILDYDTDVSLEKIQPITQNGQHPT

T1: endoglin G52V, EYFP-tagged (with an ECFP-tagged copy for the homodimer) (human) (UniProt P17813)
T1 sequence: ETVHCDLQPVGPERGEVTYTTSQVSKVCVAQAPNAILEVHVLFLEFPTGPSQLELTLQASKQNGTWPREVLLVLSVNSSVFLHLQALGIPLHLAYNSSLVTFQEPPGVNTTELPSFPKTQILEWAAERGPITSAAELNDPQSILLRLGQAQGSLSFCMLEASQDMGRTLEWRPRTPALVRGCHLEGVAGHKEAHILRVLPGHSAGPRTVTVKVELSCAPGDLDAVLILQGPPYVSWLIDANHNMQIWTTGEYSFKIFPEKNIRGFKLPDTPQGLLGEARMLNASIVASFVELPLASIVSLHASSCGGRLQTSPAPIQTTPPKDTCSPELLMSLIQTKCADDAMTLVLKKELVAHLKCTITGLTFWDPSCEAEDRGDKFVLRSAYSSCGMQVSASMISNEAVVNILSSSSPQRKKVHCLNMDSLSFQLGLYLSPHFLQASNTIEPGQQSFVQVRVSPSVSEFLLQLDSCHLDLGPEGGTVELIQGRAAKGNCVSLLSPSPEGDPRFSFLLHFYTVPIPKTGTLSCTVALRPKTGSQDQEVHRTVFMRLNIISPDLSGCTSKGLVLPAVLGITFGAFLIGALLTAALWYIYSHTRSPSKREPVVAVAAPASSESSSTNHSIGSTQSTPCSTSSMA

T2: endoglin wild-type, split-EYFP (BiFC) fusion (human) (UniProt P17813)
T2 sequence: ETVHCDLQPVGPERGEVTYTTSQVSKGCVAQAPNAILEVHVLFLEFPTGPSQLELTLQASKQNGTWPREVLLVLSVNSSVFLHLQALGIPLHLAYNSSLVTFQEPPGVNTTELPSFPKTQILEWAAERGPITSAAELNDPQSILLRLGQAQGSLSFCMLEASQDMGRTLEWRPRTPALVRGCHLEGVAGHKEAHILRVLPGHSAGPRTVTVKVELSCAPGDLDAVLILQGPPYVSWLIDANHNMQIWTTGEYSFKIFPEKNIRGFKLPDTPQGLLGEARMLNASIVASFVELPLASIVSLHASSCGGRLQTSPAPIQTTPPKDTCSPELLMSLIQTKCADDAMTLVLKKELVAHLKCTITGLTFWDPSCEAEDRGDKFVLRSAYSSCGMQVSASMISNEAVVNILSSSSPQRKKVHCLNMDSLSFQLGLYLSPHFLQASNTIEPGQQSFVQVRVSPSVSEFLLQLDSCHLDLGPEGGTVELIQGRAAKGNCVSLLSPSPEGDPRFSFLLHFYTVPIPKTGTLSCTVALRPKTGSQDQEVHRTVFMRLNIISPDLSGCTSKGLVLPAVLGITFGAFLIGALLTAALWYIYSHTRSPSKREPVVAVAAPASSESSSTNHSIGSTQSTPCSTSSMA


Assays:
[1] = target: T1, endoglin G52V, EYFP-tagged (with an ECFP-tagged copy for the homodimer) (human); test: FRET or BRET; microscopic FRET in living CHO cells, ECFP donor and EYFP acceptor, 50 ng of each construct per 100 000 cells, 24 h after transfection, HEPES buffered ringer solution; FRET index (FI) = FRET efficiency x area with FRET; FI<51 no interaction, 51-99 weak or false positive, >=100 interaction; at least 30 cells per sample
[2] = target: T1, endoglin G52V, EYFP-tagged (with an ECFP-tagged copy for the homodimer) (human); test: as above; remark: listed apart in the source
[3] = target: T2, endoglin wild-type, split-EYFP (BiFC) fusion (human); test: split reporter; BiFC with split EYFP (N172, aa 1-172; 173C, aa 173-238) fused to the C-terminus of the endoglin variants; CHO cells co-transfected; fluorescence microscopy; fragments interchanged between the partners
[4] = target: endoglin S480C, split-EYFP (BiFC) fusion (human) (UniProt P17813); test: as above

| Molecule | binding [3] | further results |
| --- | --- | --- |
| dopamine receptor D1, ECFP-tagged (from UniProt P21728 1-446) |  | binding [1]: no binding |
| ALK5, ECFP- or EYFP-tagged (receptor, UniProt P36897 34-503, looked up, ALK5, TGF-β type I receptor; The methods name only the EYFP version; the results use an ECFP-tagged version; also called ALK5-EYFP; source: CHO cells, transiently co-transfected, in living cells) LQCFCHLCTKDNFTCVTDGLCFVSVTETTDKVIHNSMCIAEIDLIPRDRPFVCAPSSKTGSVTTTYCCNQDHCNKIELPTTVKSSPGLGPVELAAVIAGPVCFVCISLMLMVYICHNRTVIHHRVPNEEDPSLDRPFISEGTTLKDLIYDMTTSGSGSGLPLLVQRTIARTIVLQESIGKGRFGEVWRGKWRGEEVAVKIFSSREERSWFREAEIYQTVMLRHENILGFIAADNKDNGTWTQLWLVSDYHEHGSLFDYLNRYTVTVEGMIKLALSTASGLAHLHMEIVGTQGKPAIAHRDLKSKNILVKKNGTCCIADLGLAVRHDSATDTIDIAPNHRVGTKRYMAPEVLDDSINMKHFESFKRADIYAMGLVFWEIARRCSIGGIHEDYQLPYYDLVPSDPSVEEMRKVVCEQKLRPNIPNRWQSCEALRVMAKIMRECWYANGAARLTALRIKKTLSQLSQQEGIKM |  | binding [2]: no binding |
| TβRII, ECFP- or EYFP-tagged (receptor, UniProt P37173 23-567, looked up, TβRII, TGF-β type II receptor; The methods name only the EYFP version; the results use an ECFP-tagged version; also called TβRII-EYFP; TGF-β type-II receptor; source: CHO cells, transiently co-transfected, in living cells) TIPPHVQKSVNNDMIVTDNNGAVKFPQLCKFCDVRFSTCDNQKSCMSNCSITSICEKPQEVCVAVWRKNDENITLETVCHDPKLPYHDFILEDAASPKCIMKEKKKPGETFFMCSCSSDECNDNIIFSEEYNTSNPDLLLVIFQVTGISLLPPLGVAISVIIIFYCYRVNRQQKLSSTWETGKTRKLMEFSEHCAIILEDDRSDISSTCANNINHNTELLPIELDTLVGKGRFAEVYKAKLKQNTSEQFETVAVKIFPYEEYASWKTEKDIFSDINLKHENILQFLTAEERKTELGKQYWLITAFHAKGNLQEYLTRHVISWEDLRKLGSSLARGIAHLHSDHTPCGRPKMPIVHRDLKSSNILVKNDLTCCLCDFGLSLRLDPTLSVDDLANSGQVGTARYMAPEVLESRMNLENVESFKQTDVYSMALVLWEMTSRCNAVGEVKDYEPPFGSKVREHPCVESMKDNVLRDRGRPEIPSFWLNHQGIQMVCETLTECWDHDPEARLTAQCVAERFSELEHLDRLSGRSCSEEKIPEDGSLNTTK |  | binding [1]: no binding |
| endoglin G52V, split-EYFP (BiFC) fusion (receptor, UniProt P17813 26-658) ETVHCDLQPVGPERGEVTYTTSQVSKVCVAQAPNAILEVHVLFLEFPTGPSQLELTLQASKQNGTWPREVLLVLSVNSSVFLHLQALGIPLHLAYNSSLVTFQEPPGVNTTELPSFPKTQILEWAAERGPITSAAELNDPQSILLRLGQAQGSLSFCMLEASQDMGRTLEWRPRTPALVRGCHLEGVAGHKEAHILRVLPGHSAGPRTVTVKVELSCAPGDLDAVLILQGPPYVSWLIDANHNMQIWTTGEYSFKIFPEKNIRGFKLPDTPQGLLGEARMLNASIVASFVELPLASIVSLHASSCGGRLQTSPAPIQTTPPKDTCSPELLMSLIQTKCADDAMTLVLKKELVAHLKCTITGLTFWDPSCEAEDRGDKFVLRSAYSSCGMQVSASMISNEAVVNILSSSSPQRKKVHCLNMDSLSFQLGLYLSPHFLQASNTIEPGQQSFVQVRVSPSVSEFLLQLDSCHLDLGPEGGTVELIQGRAAKGNCVSLLSPSPEGDPRFSFLLHFYTVPIPKTGTLSCTVALRPKTGSQDQEVHRTVFMRLNIISPDLSGCTSKGLVLPAVLGITFGAFLIGALLTAALWYIYSHTRSPSKREPVVAVAAPASSESSSTNHSIGSTQSTPCSTSSMA | binds |  |
| endoglin G413V, split-EYFP (BiFC) fusion (receptor, UniProt P17813 26-658) ETVHCDLQPVGPERGEVTYTTSQVSKGCVAQAPNAILEVHVLFLEFPTGPSQLELTLQASKQNGTWPREVLLVLSVNSSVFLHLQALGIPLHLAYNSSLVTFQEPPGVNTTELPSFPKTQILEWAAERGPITSAAELNDPQSILLRLGQAQGSLSFCMLEASQDMGRTLEWRPRTPALVRGCHLEGVAGHKEAHILRVLPGHSAGPRTVTVKVELSCAPGDLDAVLILQGPPYVSWLIDANHNMQIWTTGEYSFKIFPEKNIRGFKLPDTPQGLLGEARMLNASIVASFVELPLASIVSLHASSCGGRLQTSPAPIQTTPPKDTCSPELLMSLIQTKCADDAMTLVLKKELVAHLKCTITGLTFWDPSCEAEDRGDKFVLRSAYSSCVMQVSASMISNEAVVNILSSSSPQRKKVHCLNMDSLSFQLGLYLSPHFLQASNTIEPGQQSFVQVRVSPSVSEFLLQLDSCHLDLGPEGGTVELIQGRAAKGNCVSLLSPSPEGDPRFSFLLHFYTVPIPKTGTLSCTVALRPKTGSQDQEVHRTVFMRLNIISPDLSGCTSKGLVLPAVLGITFGAFLIGALLTAALWYIYSHTRSPSKREPVVAVAAPASSESSSTNHSIGSTQSTPCSTSSMA | binds |  |

The next lines start with results.

| binding [3] | Molecule | further results |
| --- | --- | --- |
| binds | endoglin wild-type, split-EYFP (BiFC) fusion (receptor, UniProt P17813 26-658) ETVHCDLQPVGPERGEVTYTTSQVSKGCVAQAPNAILEVHVLFLEFPTGPSQLELTLQASKQNGTWPREVLLVLSVNSSVFLHLQALGIPLHLAYNSSLVTFQEPPGVNTTELPSFPKTQILEWAAERGPITSAAELNDPQSILLRLGQAQGSLSFCMLEASQDMGRTLEWRPRTPALVRGCHLEGVAGHKEAHILRVLPGHSAGPRTVTVKVELSCAPGDLDAVLILQGPPYVSWLIDANHNMQIWTTGEYSFKIFPEKNIRGFKLPDTPQGLLGEARMLNASIVASFVELPLASIVSLHASSCGGRLQTSPAPIQTTPPKDTCSPELLMSLIQTKCADDAMTLVLKKELVAHLKCTITGLTFWDPSCEAEDRGDKFVLRSAYSSCGMQVSASMISNEAVVNILSSSSPQRKKVHCLNMDSLSFQLGLYLSPHFLQASNTIEPGQQSFVQVRVSPSVSEFLLQLDSCHLDLGPEGGTVELIQGRAAKGNCVSLLSPSPEGDPRFSFLLHFYTVPIPKTGTLSCTVALRPKTGSQDQEVHRTVFMRLNIISPDLSGCTSKGLVLPAVLGITFGAFLIGALLTAALWYIYSHTRSPSKREPVVAVAAPASSESSSTNHSIGSTQSTPCSTSSMA |  |
| binds | endoglin S480C, split-EYFP (BiFC) fusion (receptor, UniProt P17813 26-658) ETVHCDLQPVGPERGEVTYTTSQVSKGCVAQAPNAILEVHVLFLEFPTGPSQLELTLQASKQNGTWPREVLLVLSVNSSVFLHLQALGIPLHLAYNSSLVTFQEPPGVNTTELPSFPKTQILEWAAERGPITSAAELNDPQSILLRLGQAQGSLSFCMLEASQDMGRTLEWRPRTPALVRGCHLEGVAGHKEAHILRVLPGHSAGPRTVTVKVELSCAPGDLDAVLILQGPPYVSWLIDANHNMQIWTTGEYSFKIFPEKNIRGFKLPDTPQGLLGEARMLNASIVASFVELPLASIVSLHASSCGGRLQTSPAPIQTTPPKDTCSPELLMSLIQTKCADDAMTLVLKKELVAHLKCTITGLTFWDPSCEAEDRGDKFVLRSAYSSCGMQVSASMISNEAVVNILSSSSPQRKKVHCLNMDSLSFQLGLYLSPHFLQASNTIEPGQQSFVQVRVCPSVSEFLLQLDSCHLDLGPEGGTVELIQGRAAKGNCVSLLSPSPEGDPRFSFLLHFYTVPIPKTGTLSCTVALRPKTGSQDQEVHRTVFMRLNIISPDLSGCTSKGLVLPAVLGITFGAFLIGALLTAALWYIYSHTRSPSKREPVVAVAAPASSESSSTNHSIGSTQSTPCSTSSMA | binding [4]: binds |
